Source: the supplement of paper PMC10338343
± gives the standard deviation. The full ranking holds about 6,600 sequences; the median of “pre-steady-state target cleavage rate” is about 0.07, and the highest 2% start at about 0.72. The entries are a selection whose mix differs from that of the whole data set.

Tested on: MIWI (PIWIL1) piRISC loaded with Kctd7 piRNA (30 nt)
Test: pre-steady-state target cleavage rate (min^-1); MIWI and MILI are mouse PIWI proteins and EfPiwi is from a freshwater sponge; tags in brackets are library labels; higher = faster piRNA-guided slicing of the target
Settings: guide: Kctd7 piRNA 5'p-UGUUAAUCUCUCAGAGAAGGUGACAGUGAU; auxiliary factor: 500 nM mouse GTSF1
How it was run: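 At 33 °C in HEPES–potassium acetate buffer, a transcribed, DNA-blocked target RNA library […] was exposed for 0–8 or 0–960 min to 1 nM active affinity-purified piRISC carrying a single synthetic guide, with or without 500 nM GTSF1 partner protein. Uncleaved targets were sequenced and normalised to depth and to weakly complementary targets. With three trials pooled and k3 capped at 0.0001 min^-1, a burst-and-steady-state fit produced the pre-steady-state cleavage rate.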
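Note: 1 nM active piRISC with 0.1 nM target library at 33 °C single turnover.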

Sequence | pre-steady-state target cleavage rate
UAGUGAGUCACCUUCUCUGAGAGAUAUAGA | 0.045 ± 0.013
AUCACUGUCACCUUCUCUGAGAGUAUAAGA | 0.019 ± 0.0087
UAGUCUGUCACCUUCUCAGAGAGAUUAAGA | 0.114 ± 0.034
AUCUGUGUCACCUUCUCUGAGAGAUAUUGA | 0.0551 ± 0.014
UACACUCUCACGUUCUCUGAGAGAUUAACA | 0.422 ± 0.026
UACACAGUCACCUUCUCAGAGAGAUUAACA | 0.376 ± 0.036
UAGUGACACACCUGUCUCUGAGAGAUUAACA | 0.192 ± 0.024
UAGUGACAGACGUUCUCUGAGAGAUUAACA | 0.0155 ± 0.0026
UAGUGUGACACCUACUCUGAGAGAUUAACA | 0.356 ± 0.026
UAGUCUGUCACCAUGUCUGAGAGAUUAACA | 0.153 ± 0.011
UACACUGUCACCUUGUCUGAGUGAUUAACA | 0.0308 ± 0.0062
UAGACUGUCAGCUACUCUGAGAGAUUAACA | 0.448 ± 0.034
UAGUGUGACACCUUCUGUGAGAGAUUAACA | 0.364 ± 0.029
UAGUCUGUCACCUACUCUGUGAGAUUAACA | 0.166 ± 0.011
AUCAUUGUCACCUUCUCUGAGAGAUUAACA | 0.593 ± 0.028
UAGUGACAGUGCUUCUCUGAGAGAUUAACG [g2:g19:cont:t1G] | 0.0113 ± 0.0021
UAGUCUGUGACCUUCUCUGAGAGUUUAACA | 0.178 ± 0.026
UUCACUGUCACCUUGUCUGAGAGAUUAACA | 0.431 ± 0.053
AUCUGAGUCACCUUCUCUGAGAGAUUAUGA | 0.109 ± 0.023
UUCACUGUCACCUACUCUGAGAGAAUAACA | 0.29 ± 0.037
UAGUCAGUCAGCUUCUCUGAGAGAUUAACA | 0.708 ± 0.036
UAGUGACAGUGCCUCUCUGAGAGAUUAACA | 0.00449 ± 0.0027
UAGUGACUCACCUUCUCGGAGAGAUUAACA | 0.0757 ± 0.011
UACACUGACACCAUCUCUGAGAGAUUAACA | 0.521 ± 0.036

Sequence | pre-steady-state target cleavage rate
UAGUGUGACACCUUCUCUGAGAGAUUAUCA | 0.175 ± 0.037
UUGACUGUCUCCUUCUCUGAGAGAUUAACA | 0.746 ± 0.04
UAGUGUGUCACCUUCUCUGAGAGAUUAACG [g2:g25:cont:t1G] | 0.513 ± 0.051
UAGUGAGGUCACCUUCUCUGAGAGAUUAACA | 0.715 ± 0.036
UAGUGACAGUGUUUCUCUGAGAGAUUAACA | 0.00493 ± 0.0019
UAGUGUGUCACCUACUCUGAGAGAUUUACA | 0.428 ± 0.064
AUCACUGUCACGUUCUCUGAGAGAUUAUCA | 0.233 ± 0.029
UAGUCUGUGACCUUCUCUGAGAGAAUAACA | 0.196 ± 0.03
UACACUGUCACCAUCUCUGAGAGAUAAACA | 0.208 ± 0.018
UUCACUGUGUCCUUCUCUGAGAGAUUAACA | 0.429 ± 0.028
UAGUGACAGUCCUUCUCUGAGAGAAUAACA | 0.00638 ± 0.0034
UAGUGACACACCUUCUCUGAGAUAUUAACA | 0.155 ± 0.026
UAGUGAGUCACCUUCUCUGUGAGAUUAAGA | 0.0999 ± 0.021
UAGUGACAGUGCUGUCUCUGAGAGAUUAACA | 0.00763 ± 0.0028
UAGUGACACCACCUUCUCUGAGAGAUUAACA | 0.527 ± 0.056
UAGUCUGUCACCAAGUCUGAGAGAUUAAGA | 0.00396 ± 0.0037
UAGUGUGUCACCUUCUCUGAGAGUAUUAACA | 0.285 ± 0.036
UAGACUGUCACGUUCUCUGAGACAUUAACA | 0.00354 ± 0.0028
UAGAGAGUCACCUUCUCUGAGAGAUUAUGA | 0.106 ± 0.025
UUCAGUGUGACCUUCUCUGAGAGAUUAACA | 0.483 ± 0.025
AAGACUGUCACCUUCUCUGAGAGAUAUUGA | 0.00378 ± 0.0034
UAGACACUCACCUUCUCUGAGAGAUUAAGA | 0.144 ± 0.025
UAGUGACUCACCUACUCUGAGAGAUUAACA | 0.275 ± 0.026
AUCACUGUCACCUACUCUGAGAGAUUUUGA | 0.0266 ± 0.0097

Sequence | pre-steady-state target cleavage rate
UAGUGUGUCUCCUUCUCUGAGAGAAUAACA | 0.0739 ± 0.015
UAGUGACUCACCUUCUCUGAGAGAUGUAACA | 0.206 ± 0.026
UUCAGCUGUCACCUUCUCUGAGAGAUUAACA | 0.681 ± 0.037
UACACAGUCACCUUCUCUGAGUGAUUAACA | 0.0402 ± 0.013
UAGUGAGUCACCUUCUCAGAGAGAUUAAGA | 0.0918 ± 0.02
UAGUGAGUCACCUUCACUGAGAGAUUAUGA | 0.0322 ± 0.011
UAGUGUGUCACCUUCUCUGAGACAUUAUGA | 0.0105 ± 0.0046
UACACUGACACCUACUCUGAGAGAUUAACA | 0.478 ± 0.046
UAGACUGUCACCUUCUGUGAGAGAUUAAGA | 0.239 ± 0.037
UAGUGAGUCACGUUCUCUCAGAGAUUAACA | 0.0565 ± 0.0084
UAGUGACAGUCCUUCUCUGAGAGUUUAACA | 0.027 ± 0.0047
AUCACUGUGACCUUCUGUGAGAGAUUAACA | 0.503 ± 0.027
UAGUGACAGUCCUUCUCUGAGAGAUUUUCA | 0.00383 ± 0.0028
UAGUGAGUCACCUUCUCUGACAGAAUAACA | 0.0397 ± 0.0095
UAGUCUCUCACCUUCACUGAGAGAUUAACA | 0.0184 ± 0.0041
UAGACUGUCUCCUUCUCUGAGUGAUUAACA | 0.0159 ± 0.0035
UUCACUGACACCUUCACUGAGAGAUUAACA | 0.425 ± 0.022
UAGUGACUCAACUUCUCUGAGAGAUUAACA | 0.105 ± 0.014
UAGUGUGUCACCUUCUCUGACAGUUUAACA | 0.103 ± 0.015
UAGUGUGUCACCUUCUCAGAGACAUUAACA | 0.164 ± 0.027
UACACACUCACCUUCUCUGAGAGAUUUUGA | 0.0846 ± 0.028
AUCACUGUCACCUUGUCUGAGAGUUUAACA | 0.745 ± 0.15
UAGUGUGUCACCUUCUCUGAGACAUUUACA | 0.028 ± 0.0097
UUCACUGUCACCUUCUCUCACAGAUUAACA | 0.0159 ± 0.0041
